In ChEMBL document CHEMBL4888484, “Replenishing the malaria drug discovery pipeline: Screening and hit evaluation of the MMV Hit Generation Library 1 (HGL1) against asexual blood stage Plasmodium falciparum ,using a nano luciferase reporter read-out” (2022):
Hit rate of the full screen: of about 150,000 compounds, about 540 (0.36%) showed an effect of 50% or more. This is one part of the list.

The compounds below were run on Plasmodium falciparum (assay: Primary screen in NF54 nanoGlo assay, in single point, at 2uM, 72h; a lower Z score goes with more inhibition). Details: timepoint 72 hour.
Format: functional, Erythrocyte

| Structure (SMILES) | % Inhibition [%] | Z score |
| --- | --- | --- |
| COc1cccc(N2CCN(C(=O)c3ccc(C)nc3C3CCN(Cc4ccc(C(F)(F)F)cc4)CC3)CC2)c1 | -11 | 2.15 |
| Cn1ccnc1CC(=O)c1ccc(Cl)cc1 | -21 | 2.45 |
| CCOc1c(CN(C)C(=O)Cn2nc(C)cc2N)cccc1OC | -8 | 1.47 |
| O=C(Nc1ccccc1Cl)N1C[C@@H]2C[C@H](NS(=O)(=O)c3cccs3)[C@H]1C2 | 25 | -2.81 |
| Cc1c(CN2CCC(n3nccc3NC(=O)[C@H]3CCOC3)CC2)[nH]c2ccccc12 | -11 | 1.01 |
| CC(C)Cc1noc(CN(CCO)C2CS(=O)(=O)CC2O)n1 (stereo not given) | -14 | 1.83 |
| CCC12OC3C(O)C4CC3C1C4C(=O)N2c1ccc(OC)cc1 (stereo not given) | -8 | 1.3 |
| CCNC(=NCc1cc(-c2ccccc2)on1)NCC | -3 | 0.25 |
| C[C@H]1Cc2[nH]ncc2CN(S(=O)(=O)c2cnn(C3CCCC3)c2)C1 | -11 | 1.74 |
| COc1ccccc1NS(=O)(=O)c1ccc2c(c1)CCCN2C(=O)C1CCC1 | -1 | 0.15 |
| CC(C)(C)CNc1cccc(C(=O)N2CCC[C@@H]2CO)n1 | 0 | 0.05 |
| O=C1CCN(c2cc(C(F)(F)F)nc(-c3ccncc3)n2)CCN1 | -2 | 0.39 |
| Cc1ncn(C)c1C(=O)N1CCC(Oc2ccc(Cl)cc2)CC1 | -6 | 1.07 |
| COc1ccc(NC(=O)N2CC(C)(C)C2(C)C)cc1OC | -8 | 0.88 |
| Cc1noc(C)c1C(=O)N1CCO[C@H](c2cccnc2)C1 | -6 | 1.09 |
| Cc1n[nH]cc1CNCc1cccc(S(=O)(=O)N2CCCCC2)c1 | -8 | 0.78 |
| CC(=O)c1cn(CC(=O)N(C)c2ccccc2)c(=O)n(C)c1=O | -14 | 1.94 |
| COC(=O)C1=C(C(=O)OC)SC(=C2C(=S)C(C)(C)N(C(=O)COc3nc4ccccc4s3)c3cc(C)ccc32)S1 | 3 | -0.39 |
| O=C(COC(=O)CCC1CCCCC1)NCc1ccc2c(c1)OCO2 | 34 | -3.79 |
| O=C(CN1CCN(c2ccnc3ccncc23)CC1)N1CCc2ccccc21 | -1 | 0.09 |
| O=C(O)c1cccc2c1OCCN(CCn1cc(Cl)cn1)C2 | 2 | -0.37 |
| CC1(C)CN(C(=O)CN2CCS(=O)(=O)CC2)[C@H]1C1CC1 | -6 | 0.94 |
| Cn1ccc2cc(CN3CCC4(CC3)NC(=O)C[C@@H]4C(=O)O)ccc21 | -20 | 2.02 |
| CC(O)(CCNC(=O)C1CCS(=O)(=O)C1)c1ccccc1 (stereo not given) | -6 | 0.57 |
| Cc1ncsc1C(=O)N1CCN(C)CC1 | -5 | 0.73 |
| O=C(CNC(=O)Cc1ccccc1)NCC(=O)NC[C@H]1CCCO1 | -14 | 1.61 |
| CC1(C)COCC(C)(C)N1C(=O)c1ncccc1F | -7 | 1.31 |
| CC(C)C(NCC1CCN(S(C)(=O)=O)C1)c1ccc(F)c(F)c1 (stereo not given) | -13 | 2.41 |

| Structure (SMILES) | % Inhibition [%] | Z score |
| --- | --- | --- |
| C[C@@H](CC(=O)Nc1cc[nH]n1)S(=O)(=O)c1ccc(F)cc1 | 0 | -0.03 |
| O=C(Nc1ncccc1O)c1c[nH]c2cc(Cl)ccc12 | 6 | -1.13 |
| COc1cccc(-c2[nH]c3c(C#N)cnn3c2NC2CCCCCC2)c1 | -4 | 0.82 |
| Cc1ccc(-n2ncc3c(=O)n(CC(=O)N4CCCC4)cnc32)c(C)c1 | -11 | 2.13 |
| CC(C)c1noc(NCCn2ccnc2)n1 | -2 | 0.43 |
| CC(=O)Nc1ccc(C(=O)N(C)[C@@H](C)C(C)(C)C)cc1 | -2 | 0.39 |
| Cc1ccc(S(=O)(=O)Nc2ccc(-c3noc(-c4ccc(C#N)cc4F)n3)cc2)cc1 | 8 | -0.91 |
| CCOc1ncccc1C(=O)NC(C)C1CCCO1 (stereo not given) | -18 | 2.87 |
| CCC1CN2CCCC2CN1Cc1cc2ccccc2o1 (stereo not given) | -2 | 0.15 |
| CN(C)C(=O)C1CCN(C(=O)Nc2nnc(CC3CCCCC3)s2)CC1 | -11 | 1.36 |
| CCOC(=O)c1nccn1CC(=O)Nc1ccnn1Cc1cccc(F)c1 | -9 | 1.82 |
| CC(C)c1n[nH]c(C2CN(C3CCOC3=O)CCO2)n1 (stereo not given) | -2 | 0.32 |
| CC(C)c1csc(CN2CCC(CCC(=O)NCc3cccc(Cl)c3)CC2)n1 | -15 | 1.35 |
| CC[C@@](C)(CCO)NC(=O)C1CCCCCC1 | -6 | 1.15 |
| Cc1ccnc(NCCNC(=O)CCN2CCCCO2)c1 | -10 | 1.94 |
| COc1ccc(-n2c(-c3sc(Nc4ccc(Cl)cc4)nc3C)nc3ccccc3c2=O)cc1 | -3 | 0.38 |
| CNC(=O)[C@H]1CC[C@H](CNc2nc(C)nc(C)c2C)CC1 | -14 | 1.82 |
| CCc1ccc(-c2nccn2[C@@H](C)c2ccncn2)nc1 | -3 | 0.43 |
| CCc1ncnc(N2CCNC(=O)C2)c1F | -13 | 1.61 |
| COc1ccccc1CC(=O)NC[C@H](C)N1CCCC1 | 0 | 0.06 |
| Cc1cc(-c2ccc(S(=O)(=O)NCc3cccs3)s2)n[nH]1 | 6 | -0.7 |
| CCc1nn(Cc2nc(N)nc(N(C)C)n2)c(=O)c(C#N)c1CC | -5 | 0.61 |
| Cc1ccc2c(c1)O[C@@H](C)CN2Cc1noc(C)n1 | -10 | 1.5 |
| O=C(c1cc(O)ccn1)N1CCC[C@@H]2O[C@H](c3ccccc3)C[C@@H]21 | -16 | 3.39 |
| Cc1c(C#N)c(N)c(C(=O)c2ccccc2)n1CC#N | -32 | 3.72 |
| Cc1nc(OCC(=O)NCCC2=CCCCC2)c2c(-c3ccc(F)cc3)noc2n1 | -3 | 0.48 |
| O=C(CCC(=O)N1Cc2ccccc2Oc2ncccc21)NCc1ccccc1Cl | 2 | -0.26 |
